In this assay the test system is Phytophthora infestans. As to the kind of experiment: Antifungal activity against Phytophthora infestans on potato plant assessed as disease control at 100 ppm after 24 hr.

In the case of `COc1ccc2c(c1OC)C[N+]1(C)CCc3cc4c(cc3C1=C2C)OCO4.[Cl-]` (stereo not drawn), the Activity came to 0%.
For `COc1ccc2c(c1OC)CN1CCc3cc4c(cc3[C@@H]1[C@@H]2C)OCO4.Cl` the value was 0%.
For `COc1ccc2c(c1OC)CN1CCc3cc4c(cc3[C@@H]1[C@H]2O)OCO4.Cl` the value was 0%; for `COc1ccc2c(c1OC)C[N@@+]1(C)CCc3cc4c(cc3[C@@H]1[C@@H]2C)OCO4.[Cl-]`, 0%; for `COc1ccc2c(c1OC)C[N@+]1(C)CCc3cc4c(cc3[C@@H]1[C@H]2O)OCO4.[Cl-]`, 0%.
As for `COc1ccc2c(c1OC)C[N@@+]1(C)CCc3cc4c(cc3[C@@H]1[C@H]2O)OCO4.[Cl-]`, the Activity worked out at 0%.
Regarding `COc1cc2c(cc1OC)-c1c(C)c3ccc(OC)c(OC)c3c[n+]1CC2.[Cl-]`, the Activity came out at 0%.
As to `CCc1c2[n+](cc3c(OC)c(OC)ccc13)CCc1cc(OC)c(OC)cc1-2.[Cl-]`, the Activity is 0%.
On to `CCCc1c2[n+](cc3c(OC)c(OC)ccc13)CCc1cc(OC)c(OC)cc1-2.[Cl-]`, for which the Activity worked out at 0%.
With `CCCCc1c2[n+](cc3c(OC)c(OC)ccc13)CCc1cc(OC)c(OC)cc1-2.[Cl-]`, the Activity worked out at 0%.
With `CCCCc1c2[n+](cc3c(OC)c(OC)ccc13)CCc1cc3c(cc1-2)OCO3.[Cl-]`, the Activity is reported as 11%.
Turning to `CCCCCCc1c2[n+](cc3c(OC)c(OC)ccc13)CCc1cc3c(cc1-2)OCO3.[Cl-]`, the Activity came out at 47%.
Turning to `CCCc1c2[n+](cc3c(OC)c(OC)ccc13)CCc1cc3c(cc1-2)OCO3.[Cl-]`, the Activity is on record as 0%.
As for `COc1ccc2c(C)c3[n+](cc2c1OC)CCc1cc2c(cc1-3)OCO2.[Cl-]`, the Activity is listed as 0%.
For `CCc1c2[n+](cc3c(OC)c(OC)ccc13)CCc1cc3c(cc1-2)OCO3.[Cl-]` the value was 5%; for `CCOc1c(OC)ccc2c(CC)c3[n+](cc12)CCc1cc2c(cc1-3)OCO2.[Cl-]` [9-O-ETHYL-13-ETHYLBERBERRUBINE], 0%.
The same measure for `CCOc1c(OC)ccc2cc3[n+](cc12)CCc1cc2c(cc1-3)OCO2.[Cl-]` [9-O-ETHYLBERBERRUBINE]: 0%.
With `CCCCCCc1c2[n+](cc3c(OC)c(OC)ccc13)CCc1cc(OC)c(OC)cc1-2.[Cl-]` [13-HEXYLPALMATINE], the Activity came to 11%.
For the compound `COc1ccc2c(O)c3[n+](cc2c1OC)CCc1cc2c(cc1-3)OCO2.[Cl-]` [13-HYDROXYBERBERINE], the Activity is reported as 0%.
On to `COc1ccc2cc3[n+](cc2c1OC)CCc1cc2c(cc1-3)OCO2.[Cl-]` [BERBERINE CHLORIDE], for which the Activity is listed as 0%.
In the case of `COc1ccc2cc3[n+](cc2c1O)CCc1cc2c(cc1-3)OCO2` [BERBERRUBINE], the Activity is on record as 0%.
With `COc1cc2c(cc1OC)-c1cc3ccc(OC)c(OC)c3c[n+]1CC2.[Cl-]` [PALMATINE CHLORIDE], the Activity came to 0%.
With `COc1cc2c(cc1OC)-c1cc3ccc(OC)c(O)c3c[n+]1CC2.[Cl-]` [PALMATRUBINE], the Activity was 0%.

The record behind these values is ChEMBL document CHEMBL3046565, “Fungicidal and herbicidal activities of berberine related alkaloids” (2000).
